# Measured values reported in the supplement of paper PMC8728848.
# The sample as a whole holds a higher share of the strongest signals than the screen did.
# Key:
# Test in all cases: glycan array binding signal (z-score within array); higher = stronger binding
# Conditions in all cases: glycan notation: IUPAC condensed, linker removed
# [1] = test system: Neu5Ac(a2-3)Gal(b1-4)GlcNAc(b1-3)Gal(b1-4)GlcNAc(b1-3)Gal(b1-4)GlcNAc
# In short: (§1)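 Glycan array data were curated from 3228 arrays in the Consortium for Functional Glycomics database and kept only where the protein sequence was available. Glycan names were converted to IUPAC-condensed notation, and columns mapping to the same glycan were averaged. The binding signal is a within-array Z-score, averaged across arrays of the same protein sequence at different concentrations or buffers and across linkers. Negative Z-scores can be read as non-binding.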
# [2] = test system: Neu5Ac(a2-3)Gal(b1-4)GlcNAc(b1-2)Man(a1-3)[Neu5Ac(a2-3)Gal(b1-4)GlcNAc(b1-2)Man(a1-6)]Man(b1-4)GlcNAc(b1-4)[Fuc(a1-6)]GlcNAc
# In short: as §1
# [3] = test system: Neu5Ac(a2-3)Gal(b1-4)GlcNAc(b1-3)Gal(b1-3)GlcNAc
# In short: as §1
# [4] = test system: Neu5Ac(a2-3)Gal(b1-4)GlcNAc(b1-3)Gal(b1-4)GlcNAc(b1-2)Man(a1-3)[Neu5Ac(a2-3)Gal(b1-4)GlcNAc(b1-3)Gal(b1-4)GlcNAc(b1-2)Man(a1-6)]Man(b1-4)GlcNAc(b1-4)GlcNAc
# In short: as §1
# [5] = test system: Neu5Ac(a2-3)Gal(b1-4)GlcNAc(b1-3)Gal(b1-4)GlcNAc(b1-6)[Gal(b1-3)]GalNAc
# In short: as §1
# [6] = test system: Neu5Ac(a2-3)Gal(b1-4)GlcNAc(b1-2)[Neu5Ac(a2-3)Gal(b1-4)GlcNAc(b1-6)]Man(a1-6)[Neu5Ac(a2-3)Gal(b1-4)GlcNAc(b1-2)Man(a1-3)][GlcNAc(b1-4)]Man(b1-4)GlcNAc(b1-4)GlcNAc
# In short: as §1
# [7] = test system: Neu5Ac(a2-3)Gal(b1-4)GlcNAc(b1-3)Gal(b1-4)GlcNAc(b1-3)[Neu5Ac(a2-3)Gal(b1-4)GlcNAc(b1-3)Gal(b1-4)GlcNAc(b1-6)]GalNAc
# In short: as §1
# [8] = test system: Neu5Ac(a2-3)Gal(b1-4)GlcNAc(b1-2)Man(a1-3)[GlcNAc(b1-2)Man(b1-4)GlcNAc(b1-2)Man(a1-6)]Man(b1-4)GlcNAc(b1-4)GlcNAc
# In short: as §1
# [9] = test system: Neu5Ac(a2-3)Gal(b1-4)GlcNAc(b1-2)Man(a1-3)[Neu5Ac(a2-6)Gal(b1-4)GlcNAc(b1-2)Man(a1-6)]Man(b1-4)GlcNAc(b1-4)GlcNAc
# In short: as §1
# [10] = test system: Neu5Ac(a2-3)Gal(b1-4)GlcNAc(b1-2)Man
# In short: as §1
substance,measurement,setting,value
Gal 8 long (Homo sapiens) (chain not printed),glycan array binding signal (z-score),[1],0.976
Meso764 (Homo sapiens) (chain not printed),glycan array binding signal (z-score),[2],0.133
same,glycan array binding signal (z-score),[3],-0.729
same,glycan array binding signal (z-score),[4],-0.377
Angiogenin (Homo sapiens) (chain not printed),glycan array binding signal (z-score),[1],-1.19
Thrombomodulin Extracellular (Homo sapiens) (chain not printed),glycan array binding signal (z-score),[5],-0.089
Gal 3 (Homo sapiens) (chain not printed),glycan array binding signal (z-score),[6],-0.198
same,glycan array binding signal (z-score),[7],-0.033
M-Ficolin A256V (Homo sapiens) (chain not printed),glycan array binding signal (z-score),[8],3.48
same,glycan array binding signal (z-score),[9],-0.088
same,glycan array binding signal (z-score),[3],-0.123
Galectin-8 C-terminal CRD (Homo sapiens) (chain not printed),glycan array binding signal (z-score),[1],0.656
H-Ficolin (Homo sapiens) (chain not printed),glycan array binding signal (z-score),[8],-0.25
same,glycan array binding signal (z-score),[3],0.316
M-Ficolin G221F A256V (Homo sapiens) (chain not printed),glycan array binding signal (z-score),[1],4.51
FGF2 (chain not printed),glycan array binding signal (z-score),[10],3.69
same,glycan array binding signal (z-score),[1],0.008
M-Ficolin (Homo sapiens) (chain not printed),glycan array binding signal (z-score),[8],4.98
M-Ficolin Y271F (Homo sapiens) (chain not printed),glycan array binding signal (z-score),[9],-0.548
